According to PubChem BioAssay AID624418 (National Center for Advancing Translational Sciences (NCATS), 2012):
The campaign covered roughly 410,000 compounds. About 530 (0.13%) were called active. This list was built around the results that the source calls inconclusive (neither active nor inactive); the mix of calls is not that of the screen. Calls come from the whole dose curve; as a rule, active = well fitted inhibition curve with a large enough effect; inconclusive = small, poorly fitted or top-dose-only effect, or another doubt; inactive = no such curve, though single readings can be large or run the other way. Potencies beside an inconclusive call are fits to weak or partial responses and may not hold up.

test: qHTS of GLP-1 Receptor Inverse Agonists: Cytotox Screen; conditions: HEK293 cAMP-luciferase reporter cells, luminescence, 24 h; series mostly up to 38.3 µM
Procedure, shortened: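 MLSMR compounds, 24 hr on cells at 37 deg C/5% CO2; luminescence after luciferase reagent (12 min RT). Inhibition counted as the undesired cytotoxic outcome.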
Potency is the fitted concentration of half-maximal effect.

Q: Which Potency does the source give for `COc1ccc2nc(C)cc(Nc3ccc(N4CCN(C)CC4)cc3)c2c1` here?
A: inconclusive: 6.31 µM [inhibitor, partial curve, poor fit]

Q: With `O=C(Cn1nc(C(F)(F)F)c2c1CCCC2)Nc1ccc(F)c(Cl)c1` as the compound, how does the Potency read?
A: inactive

Q: With `CC(C)S(=O)(=O)c1csc(NC(=O)Nc2ccc(Cl)cc2)c1Cl` as the compound, how does the Potency read?
A: inconclusive: 10 µM [inhibitor, single point]

Q: For `Cc1ccc(S(=O)(=O)CCC(=O)Nc2ccc3c(c2)OCO3)cc1`, which Potency is on record?
A: inactive

Q: For `Cc1ccc(-n2c(=S)[nH]c3sc4c(c3c2=O)CCC4)cc1`, which Potency is on record?
A: inactive

Q: For `CC(C)Cc1nnc(NC(=O)Nc2ccccc2)s1`, which Potency is on record?
A: inconclusive: 10 µM [inhibitor, partial curve, poor fit]

Q: For `CC(C)CCn1c(-c2nonc2N)nc2ccccc21`, which Potency is on record?
A: inactive

Q: With `Cc1ccccc1OCCn1cc(C(=S)N2CCCC2)c2ccccc21` as the compound, how does the Potency read?
A: inconclusive: 28.2 µM [inhibitor, single point]

Q: For `O=C(CSc1nc2ccc(NC(=O)CSc3nnnn3-c3ccccc3)cc2s1)Nc1ccccc1`, which Potency is on record?
A: active: 10 µM

Q: With `N#CCCN(Cc1ccccc1)C(=S)NC(=O)c1ccccc1` as the compound, how does the Potency read?
A: inconclusive: 2.24 µM [inhibitor, full curve, poor fit]

Q: For `Cc1cc2c(cc1C)C(c1cc(Br)ccc1F)CC(=O)N2` (stereo unspecified), which Potency is on record?
A: inconclusive: 12.6 µM [inhibitor, partial curve, poor fit]

Q: For `CCOC(=O)c1ccc(N2CCCCC2)c(NS(=O)(=O)c2ccc(C)cc2)c1`, which Potency is on record?
A: inconclusive: 28.2 µM [inhibitor, single point]

Q: With `CCOC1=C2CN(S(=O)(=O)c3ccc(C)cc3)[C@H](c3ccccc3)C[C@@H]2N(S(=O)(=O)c2ccc(C)cc2)[C@H](c2ccccc2)C1` as the compound, how does the Potency read?
A: inactive

Q: Which Potency does the source give for `CCOc1ccccc1N1CCN(C(=O)c2cc(C)oc2C)CC1` here?
A: inconclusive: 11.2 µM [inhibitor, partial curve, poor fit]

Q: With `C=C(C)c1nc(Oc2ccccc2)nc(Oc2ccccc2)n1` as the compound, how does the Potency read?
A: inconclusive: 28.2 µM [inhibitor, single point]

Q: Which Potency does the source give for `CC1(C(=O)Nc2ccc3c(c2)OCCO3)CCN1C(=O)C/C=C/c1ccccc1` (stereo unspecified) here?
A: inactive

Q: With `COc1ccc(OC)c(-c2cc(C(=O)N3CCN(c4ncccn4)CC3)c3ccccc3n2)c1` as the compound, how does the Potency read?
A: inconclusive: 10 µM [inhibitor, partial curve]

Q: For `CCN(C(=O)COC(=O)CSc1ccc([N+](=O)[O-])cc1)C1CCS(=O)(=O)C1` (stereo unspecified), which Potency is on record?
A: inconclusive: 11.2 µM [inhibitor, single point]

Q: For `Cc1cccc(NC(=S)NCc2ccc(F)cc2)c1C`, which Potency is on record?
A: inconclusive: 11.2 µM [inhibitor, single point]

Q: For `N=c1n(CCN2CCCC2)c2ccccc2n1CC(O)c1ccc(Cl)c(Cl)c1` (stereo unspecified), which Potency is on record?
A: inconclusive: 14.1 µM [inhibitor, single point]

Q: For `Cc1cc(=S)c2cccc(C)c2[nH]1`, which Potency is on record?
A: inactive

Q: For `Cc1cccc(C)c1OCc1nc2ccccc2c(=O)n1/N=C/c1c[nH]c2ccccc12`, which Potency is on record?
A: inactive

Q: For `COc1ccc(CCNC(=S)Nc2cc(C)ccc2C)cc1`, which Potency is on record?
A: inconclusive: 28.2 µM [inhibitor, single point]

Q: For `O=C(Nc1nnc(S(=O)(=O)N2CCCC2)s1)c1ccccc1Cl`, which Potency is on record?
A: inactive

Q: Which Potency does the source give for `O=C(CCN1C(=O)/C(=C/c2ccco2)SC1=S)Nc1ccc(C(=O)O)c(O)c1` here?
A: inconclusive: 10 µM [inhibitor, partial curve, poor fit]

Q: With `NC(=S)NN=C1c2cc(Cl)ccc2-c2c1cc(Cl)cc2[N+](=O)[O-]` as the compound, how does the Potency read?
A: inconclusive: 0.316 µM [inhibitor, full curve, poor fit]

Q: For `Cc1ccc(C)c(NC(=O)CCN2CCN(c3ccccc3F)CC2)c1`, which Potency is on record?
A: inactive

Q: Which Potency does the source give for `COc1cccc(/C=N/NC(=S)NCCc2ccccc2)c1` here?
A: inconclusive: 14.1 µM [inhibitor, single point]

Q: Which Potency does the source give for `Cc1ccc(C2(c3ccc(C)cc3)NC(=O)N(Cc3c(C)noc3C)C2=O)cc1` here?
A: inconclusive: 28.2 µM [inhibitor, single point]

Q: With `Clc1ccc(CN2CCCCCC2)cc1` as the compound, how does the Potency read?
A: inactive

Q: Which Potency does the source give for `CC(C1=C(CCN(C)C)Cc2ccccc21)c1ccccn1` (stereo unspecified) here?
A: inactive

Q: Which Potency does the source give for `CCOC(=O)C1=C(CN2CCN(c3cc(C)ccc3C)CC2)NC(=O)NC1c1ccccc1` (stereo unspecified) here?
A: inactive

Q: Which Potency does the source give for `CCc1ccc2oc(C(=O)NCCc3ccc(OC)c(OC)c3)cc(=O)c2c1` here?
A: inactive

Q: With `CCOc1ccccc1N1CCN(Cc2cccc(OC)c2OC)CC1` as the compound, how does the Potency read?
A: inactive

Q: Which Potency does the source give for `COc1ccc(-c2cc(C(=O)N3CCN(c4ccccc4)CC3)c3ccccc3n2)cc1` here?
A: inconclusive: 2.24 µM [inhibitor, full curve]

Q: Which Potency does the source give for `Cc1c(C(=O)O)c(-c2ccccc2)nn1-c1ccccc1` here?
A: inactive

Q: With `Nc1nc(-c2ccccc2)c(-c2ccccc2)n1N` as the compound, how does the Potency read?
A: inactive

Q: Which Potency does the source give for `O=S(=O)(c1ccc(Cl)c(Cl)c1)c1snnc1-c1ccccc1` here?
A: inconclusive: 15.8 µM [inhibitor, partial curve, poor fit]

Q: Which Potency does the source give for `COc1ccc(Cl)cc1NC(=O)Nc1ccc(C(=O)N2CCCC2)cc1` here?
A: inactive

Q: With `CCCOc1ccccc1C1CC(=O)Nc2cc3c(cc21)OCCO3` (stereo unspecified) as the compound, how does the Potency read?
A: inconclusive: 0.891 µM [inhibitor, full curve]

Q: Which Potency does the source give for `O=C1/C(=C/c2ccc(Cl)cc2)NC(=S)N1Cc1cccnc1` here?
A: inconclusive: 8.91 µM [inhibitor, partial curve, poor fit]

Q: With `COc1ccc(CN(C)c2ncnc3sccc23)c(OC)c1OC` as the compound, how does the Potency read?
A: inconclusive: 14.1 µM [inhibitor, single point]

Q: Which Potency does the source give for `O=C1CN(C(=O)COC(=O)c2ccc(Cl)cc2)c2ccccc2N1` here?
A: inactive

Q: With `CN(C)c1nc2ccccc2c(N)c1-c1ccccc1` as the compound, how does the Potency read?
A: inconclusive: 31.6 µM [inhibitor, single point]

Q: Which Potency does the source give for `O=C(NCc1cccc(Br)c1)c1ccc(-n2cnc3cccnc32)cc1` here?
A: inactive

Q: Which Potency does the source give for `Cc1ccccc1NC(=O)c1ccc2nc(N3CCOCC3)sc2c1` here?
A: inconclusive: 20 µM [inhibitor, single point]

Q: With `Cn1c(=O)n(Cc2ccccc2)c(=O)c2c1nc(NCC1CCCO1)n2Cc1ccccc1` (stereo unspecified) as the compound, how does the Potency read?
A: inconclusive: 1 µM [inhibitor, full curve, poor fit]

Q: With `O=c1cc(N2CCCCC2)c(-c2ccccc2)nn1Cc1ccc(Cl)cc1Cl` as the compound, how does the Potency read?
A: inconclusive: 28.2 µM [inhibitor, single point]

Q: For `CCOc1ccc(NC(=O)COC(=O)Cn2cnnn2)cc1OCC`, which Potency is on record?
A: inactive

Q: With `COc1ccc(NCc2nc3ccccc3n2CCOc2ccc(C)cc2)cc1` as the compound, how does the Potency read?
A: inconclusive: 28.2 µM [inhibitor, single point]

Q: With `CCN(CC)c1ccc(S(=O)(=O)N2CCOCC2)cc1NC(=O)COC(=O)/C=C/c1ccc(C)o1` as the compound, how does the Potency read?
A: inconclusive: 22.4 µM [inhibitor, single point]

Q: Which Potency does the source give for `NC(=O)COc1ccc(C(=O)/C=C2/C(=O)Nc3ccccc32)cc1` here?
A: inconclusive: 15.8 µM [inhibitor, partial curve, poor fit]

Q: For `C(=Nc1ccc(N2CCOCC2)cc1)c1c[nH]c2ccccc12`, which Potency is on record?
A: inactive

Q: With `O=C(NCC(c1ccc(Cl)cc1)N1CCCCC1)c1ccccc1` (stereo unspecified) as the compound, how does the Potency read?
A: inactive

Q: Which Potency does the source give for `Clc1ccc2c(c1)C(C1=NCCN1)c1ccccc1CS2` (stereo unspecified) here?
A: inconclusive: 0.501 µM [inhibitor, full curve, poor fit]

Q: Which Potency does the source give for `Cc1nn(C)c(C(=O)NC(=S)Nc2ccc([N+](=O)[O-])cc2)c1Cl` here?
A: inconclusive: 22.4 µM [inhibitor, single point]

Q: With `O=Cc1[nH]c2ccccc2c1N(C(=O)CCl)c1ccc([N+](=O)[O-])cc1` as the compound, how does the Potency read?
A: inconclusive: 7.94 µM [inhibitor, partial curve, poor fit]

Q: For `Cc1ccc(/C=C/C2=NN(Cc3ccc(Cl)c(Cl)c3)C(=O)CC2)cc1`, which Potency is on record?
A: inactive

Q: Which Potency does the source give for `CCOc1cccc(CNCCO)c1OCc1ccc(Cl)cc1Cl` here?
A: inconclusive: 28.2 µM [inhibitor, single point]

Q: Which Potency does the source give for `CCC(C)NCCCOc1ccc(Cl)cc1C(C)(C)C` (stereo unspecified) here?
A: inactive

Q: With `O=C(Cn1nnc2ccccc21)Nc1ccc([N+](=O)[O-])cc1` as the compound, how does the Potency read?
A: inactive

Q: For `O=c1c2c3c(sc2nc(NCCO)n1CCc1ccccc1)CCCCC3`, which Potency is on record?
A: inconclusive: 7.94 µM [inhibitor, partial curve, poor fit]

Q: Which Potency does the source give for `O=C(NCC1CCCO1)C(c1cccs1)N(Cc1cccs1)C(=O)c1ccc(-c2ccccc2)[nH]1` (stereo unspecified) here?
A: inactive

Q: For `COc1ccccc1/C=C/[C@@H]1C[C@H]2CN(Cc3cccc(Cl)c3)C(=O)[C@]23CCCN13`, which Potency is on record?
A: inconclusive: 28.2 µM [inhibitor, single point]

Q: For `CC(=O)Nc1cccc(C(=O)Nc2ccccc2N2CCOCC2)c1`, which Potency is on record?
A: inconclusive: 7.94 µM [inhibitor, partial curve, poor fit]

Q: For `NCCCC[C@H]1CNC(=O)C(=O)N1CCc1cccc(F)c1`, which Potency is on record?
A: inconclusive: 0.501 µM [inhibitor, full curve, poor fit]

Q: For `Cc1[nH]c(-c2ccc(F)cc2)cc1C(=O)N1CCN(c2cccc(Cl)c2)CC1`, which Potency is on record?
A: inconclusive: 8.91 µM [inhibitor, partial curve, poor fit]

Q: With `CSc1cccc(NC(=S)N(CCCN2CCCC2)Cc2cccs2)c1` as the compound, how does the Potency read?
A: inconclusive: 28.2 µM [inhibitor, single point]

Q: Which Potency does the source give for `C=CCNC(=S)N/N=C(\C)c1cccc(OC)c1` here?
A: inconclusive: 5.01 µM [inhibitor, full curve, poor fit]

Q: For `O=C(CSc1cn(CCNC(=O)c2cccc(C(F)(F)F)c2)c2ccccc12)Nc1ccc2c(c1)OCCO2`, which Potency is on record?
A: inconclusive: 17.8 µM [inhibitor, partial curve, poor fit]

Q: For `CCCCN(C=O)c1c(CC)nc2ccc(C(=O)Nc3cc(-c4ccccc4)ccc3OC)cn12`, which Potency is on record?
A: inconclusive: 10 µM [inhibitor, partial curve, poor fit]
